# Assay results from the supplement of paper PMC12355420.
# Where a name gives a salt, the structure may show the parent alone. This is one part of the list. Cut-off read from the data, not from the text of the source: active = 0.5 or less and inactive = the rest. Many values rest on one well or one pass, so single values are uncertain.
# What was measured:
# Conditions in all cases: 50 µM; 24 h
# [1] = system: HeLa VPS33A reporter cells; test: relative cell viability (CellMask signal) vs DMSO (fraction of DMSO); higher = less cytotoxic;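 note: primary screen of an FDA-approved drug library in HeLa reporter cells in 96-well format, CellMask signal normalized to DMSO-treated wells set as 1, under 0.5 deemed highly cytotoxic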
# [2] = system: HeLa VPS33A R498W KI + HA-SDC1-FLAG; test: relative GAG core protein HA-SDC1 amount per cell number vs DMSO (fraction of DMSO); higher = more SDC1 (GAG core protein);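 note: HA-SDC1 level read out by In-Cell Western staining with an anti-HA antibody against the N-terminal tag, screening FDA-approved library drugs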
# [3] = system: HeLa VPS33A KO + NLuc-VPS33A R498W; test: relative mutant VPS33A R498W amount (NanoLuc luminescence) vs DMSO (fraction of DMSO); HeLa model of a glycosaminoglycan (GAG) storage disease; KI is knock-in and KO knock-out; SDC1 is syndecan 1; higher = higher mutant VPS33A level;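 note: screen of an FDA-approved drug library, NanoLuc luminescence read after lysing the treated cells, taken as a measure of mutant VPS33A protein stability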
SMILES,relative cell viability [1],relative GAG core protein HA-SDC1 amount per cell number [2],relative mutant VPS33A R498W amount [3]
Nc1nc(N)nc(NC2CC2)n1 [Cyromazine],0.98,inactive: 0.904,1.62
CN1c2ccccc2C(NCCCCCCC(=O)O)c2ccc(Cl)cc2S1(=O)=O (stereo not drawn) [Tianeptine sodium],0.976,inactive: 0.922,1.13
Cc1cccc(C)c1NC(=O)CN1CCCC1=O [Nefiracetam],1.28,inactive: 1.24,1.59
COC(=O)C1=CCCN(C)C1 [Arecoline hydrobromide],1.04,inactive: 0.789,1.38
C[N+]1(C)CCCC(OC(=O)C(O)(c2ccccc2)c2ccccc2)C1 (stereo not drawn) [Mepenzolate Bromide],1.05,inactive: 1.03,1.04
CC(C)c1c(CN(C)C(C)Cc2ccccc2)n(C)n(-c2ccccc2)c1=O (stereo not drawn) [Famprofazone],1.06,inactive: 1.02,0.45
CN(C)[C@@H]1C(=O)C(C(N)=O)=C(O)[C@@]2(O)C(=O)C3=C(O)c4c(O)cccc4[C@@](C)(O)[C@H]3[C@H](O)[C@@H]12 [Oxytetracycline Dihydrate],0.916,inactive: 0.846,1.06
N#C[C@H](O[C@@H]1O[C@H](CO[C@@H]2O[C@H](CO)[C@@H](O)[C@H](O)[C@H]2O)[C@@H](O)[C@H](O)[C@H]1O)c1ccccc1 [Amygdalin],1.15,inactive: 0.962,1.41
CC(O)(CS(=O)(=O)c1ccc(F)cc1)C(=O)Nc1ccc(C#N)c(C(F)(F)F)c1 (stereo not drawn) [Bicalutamide],1.01,inactive: 1.22,1.43
CCC1(C)CC(=O)NC(=O)C1 [Bemegride],1.02,inactive: 1.32,1.25
COc1ccc2c(c1)[nH]c1c(C)nccc12 [Harmine hydrochloride],0.679,active: 0.285,2.83
CC(NC(C)(C)C)C(=O)c1cccc(Cl)c1 (stereo not drawn) [Bupropion hydrochloride],1.03,inactive: 0.772,0.968
CN(C)[C@@H]1C(=O)C(C(N)=O)=C(O)[C@@]2(O)C(=O)C3=C(O)c4c(O)cccc4[C@@](C)(O)[C@H]3[C@H](O)[C@@H]12 [Oxytetracycline (Terramycin)],0.937,inactive: 0.805,0.994
Cn1c(CCCC(=O)O)nc2cc(N(CCCl)CCCl)ccc21 [Bendamustine HCl],1.24,inactive: 0.759,0.808
N=C(N)NN [Aminoguanidine hydrochloride],1.12,inactive: 0.826,1.02
CCN(C)C(=O)Oc1cccc([C@H](C)N(C)C)c1 [Rivastigmine],1.04,inactive: 0.656,0.667
CCC12C=CCN3CC[C@@]4(c5ccc(OC)cc5N(C)[C@H]4[C@@](O)(C(=O)OC)[C@@H]1OC(C)=O)[C@@H]32 (stereo partly drawn) [Vindoline],1.03,inactive: 0.704,0.892
CC1C(=O)OC2C(O)C34C5OC(=O)C3(OC3OC(=O)C(O)C34C(C(C)(C)C)C5O)C12O (stereo not drawn) [Ginkgolide C],1.04,inactive: 0.64,1.16
CN1C(=O)CCS(=O)(=O)C1c1ccc(Cl)cc1 (stereo not drawn) [Chlormezanone],1.14,inactive: 0.784,1.13

SMILES,relative cell viability [1],relative GAG core protein HA-SDC1 amount per cell number [2],relative mutant VPS33A R498W amount [3]
OC(c1ccccc1)(c1ccccc1)C1CCNCC1 [Azacyclonol],1.1,inactive: 0.709,0.861
CC(=O)O[C@H]1C[C@@H]2CC[C@@H]3[C@H](CC[C@@]4(C)[C@H]3C[C@H]([N+]3(C)CCCCC3)[C@@H]4OC(C)=O)[C@@]2(C)C[C@@H]1[N+]1(C)CCCCC1 [Pancuronium dibromide],1.05,inactive: 0.722,1.17
C[C@]12CCC(=O)C=C1C=C[C@@H]1[C@@H]2CC[C@@]2(C)[C@H]1CC[C@@]2(O)CCC(=O)O [Potassium Canrenoate],1.12,inactive: 1.47,0.759
CCN(C)C(=O)Oc1cccc([C@H](C)N(C)C)c1 [Rivastigmine Tartrate],1.13,inactive: 0.919,0.808
CCN1CC2(OC(=O)c3ccccc3NC(C)=O)CCC(OC)C34C1C(CC23)C1(O)CC(OC)C2CC4C1(O)C2OC (stereo not drawn) [Lannaconitine],0.86,inactive: 0.589,0.796
CN(C)C(=O)Oc1cccc([N+](C)(C)C)c1 [Neostigmine Bromide],1.08,inactive: 1.26,1.17
Nc1ccncc1 [4-Aminopyridine],0.981,inactive: 1.01,1.01
C[N+]1(C)[C@@H]2C[C@@H](OC(=O)[C@H](CO)c3ccccc3)C[C@H]1[C@@H]1O[C@@H]12 [Methscopolamine],1.13,inactive: 0.632,1.21
NC[C@H](CC(=O)O)c1ccc(Cl)cc1 [(R)-baclofen],1.32,inactive: 1.5,1.08
Cc1cccc(C)c1NC1=NCCCS1 [Xylazine HCl],1.23,inactive: 0.925,1.24
C=CC[C@]1(O)CC[C@H]2[C@@H]3CCC4=CC(=O)CCC4=C3C=C[C@@]21C [Altrenogest],1.15,active: 0.422,1.1
CC(C)NCC(O)c1ccccc1Cl (stereo not drawn) [Clorprenaline HCL],1.01,inactive: 0.941,1.13
CCC[C@@H]1CC(=O)N([C@@H](CC)C(N)=O)C1 [Brivaracetam],1.01,inactive: 0.815,1.21
C[C@H]1O[C@H](O[C@H]2[C@H](O)[C@@H](O)[C@@H](O)[C@H](O)[C@@H]2O)[C@@H](N)C[C@@H]1NC(=N)C(=O)O [Kasugamycin (hydrochloride)],1.07,inactive: 1.03,1.07
CN1[C@@H]2CC[C@H]1C[C@@H](OC(=O)[C@H](CO)c1ccccc1)C2 [Hyoscyamine],1.02,inactive: 0.647,1.09
C=C1CC[C@H]2[C@@H](C=C(C)C(=O)[C@@]3(O)C[C@H](C)[C@H](O)[C@@H]3[C@H]1O)C2(C)C [Lathyrol],1.05,inactive: 0.777,1.2
CN(C)Cc1c[nH]c2ccccc12 [Gramine],0.945,inactive: 0.673,0.79
CN(C)C(=O)Oc1cc(OC(=O)N(C)C)cc(C(O)CNC(C)(C)C)c1 (stereo not drawn) [Bambuterol (hydrochloride)],1.04,inactive: 0.861,1.32
COc1ccc(C(=O)N2CCCC2=O)cc1 [Aniracetam],1.28,inactive: 1.15,1.15

SMILES,relative cell viability [1],relative GAG core protein HA-SDC1 amount per cell number [2],relative mutant VPS33A R498W amount [3]
Cc1cc(O)ccc1Cl [Chlorocresol],1.03,inactive: 1.2,1.23
CN1[C@@H]2CC(O)C[C@H]1[C@@H]1O[C@@H]12 (stereo partly drawn) [Scopine],1.24,inactive: 1.1,1.34
CN(C)C(=O)Oc1ccc[n+](C)c1 [Pyridostigmine Bromide],0.908,inactive: 0.776,1.09
NCC1(CC(=O)O)CCCCC1 [Gabapentin HCl],1.28,inactive: 1.65,1.15
C=CCN1CC[C@]23c4c5ccc(O)c4O[C@H]2C(=O)CC[C@@]3(O)[C@H]1C5 [Naloxone HCl],1.02,inactive: 1.06,1.21
C[C@]12CC[C@H](O)C[C@@H]1CC[C@@H]1[C@@H]2CC[C@]2(C)C(=O)CC[C@@H]12 [Epiandrosterone],1.06,inactive: 0.527,0.472
CC(C)C[C@H]1C(=O)N2CCC[C@H]2[C@]2(O)O[C@](NC(=O)[C@@H]3C=C4c5cccc6[nH]c(Br)c(c56)C[C@H]4N(C)C3)(C(C)C)C(=O)N12 [Bromocriptine mesylate],1.17,active: 0.488,0.481
Cc1c(N)nc(C(CC(N)=O)NCC(N)C(N)=O)nc1C(=O)NC(C(=O)NC(C)C(O)C(C)C(=O)NC(C(=O)NCCc1nc(-c2nc(C(=O)NCCC[S+](C)C)cs2)cs1)C(C)O)C(O[C@@H]1O[C@@H](CO)[C@@H](O)[C@H](O)[C@@H]1O[C@H]1O[C@H](CO)[C@@H](O)[C@H](OC(N)=O)[C@@H]1O)c1cnc[nH]1 (stereo partly drawn) [Bleomycin Sulfate],1.41,inactive: 1.25,0.789
CC(C)OC(=O)[C@H](C)N[P@](=O)(CO[C@H](C)Cn1cnc2c(N)ncnc21)Oc1ccccc1,1.09,inactive: 0.721,2.33
O=C([O-])C(Cl)Cl.[Na+],0.986,inactive: 0.856,1.25
CNC1CC(N)C(O)C(OC2OC(CO)C(O)C3OC4(OC(C(N)CO)C(O)C(O)C4O)OC23)C1O (stereo not drawn) [Hygromycin B],1.37,inactive: 1.12,1.09
O=[N+]([O-])O[C@@H]1CO[C@H]2[C@@H]1OC[C@@H]2O [Isosorbide 5-mononitrate],0.998,inactive: 0.897,1.38
CC[C@@]1(O)C(=O)OCc2c1cc1n(c2=O)Cc2cc3ccccc3nc2-1 [Camptothecin],1.16,inactive: 0.781,0.675
c1ccc2c(c1)sc1ccccc12 [Dibenzothiophene],0.954,inactive: 0.639,1.1
Nc1nc(N)nc(N)n1 [Melamine],1.04,inactive: 0.873,1.54
COc1ccc(C=O)cc1 [p-Anisaldehyde],1.02,inactive: 0.817,1.29
O=C(O)c1nn(Cc2ccc(Cl)cc2Cl)c2ccccc12 [Lonidamine],1,inactive: 0.835,0.995
C[N+](C)(C)CCCCCCCCCC[N+](C)(C)C [Decamethonium Bromide],0.982,inactive: 1.01,1.37
